# In the supplement of paper PMC12217912:
# The other results are listed elsewhere or left out. Sequences were assembled here from the parent chain. Inactive controls read about 0.05.
# B1: TEV protease; numbered along this chain (parent)
# chain: MGESLFKGPRDYNPISSSICHLTNESDGHTTSLYGIGFGPFIITNKHLFRRNNGTLVVQSLHGVFKVKDTTTLQQHLVDGRDMIIIRMPKDFPPFPQKLKFREPQREERICLVTTNFQTKSMSSMVSDTSCTFPSGDGIFWKHWIQTKDGQCGSPLVSTRDGFIVGIHSASNFTNTNNYFTSVPKNFMELLTNQEAQQWVSGWRLNADSVLWGGHKVFMVKPEEPFQPVKEATQL
# Variants of: B1
# Experiment: raw area under fraction-flipped curve 0-4 h after induction (AUC4h, not background-subtracted), DNA-recorder readout of cleavage of the substrate (dimensionless); higher = more cleavage of the substrate by the protease variant
# Settings: temperature: 34 °C; time window: 0-4 h after rhamnose induction
# Protocol: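 In vivo DNA recorder in E. coli TOP10(DE3) ΔrhaA at 34 °C. Each TEVp single-site mutant (parent TEVp 0) is paired with a single-site variant of the 7-mer TEVs (canonical ENLYFQ|S). The substrate sits between flexible linkers in a Bxb1-sfGFP-TEVs-SsrA fusion, so cleavage stabilises Bxb1 and speeds flipping of a recombination array, read by NGS. The value is the raw area under the fraction-flipped curve over 0-4 h after rhamnose induction (AUC4h), with ≥20 reads per time point. It is not background-subtracted; inactive controls average about 0.047.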
# 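Also: Bxb1 expression induced with 0.2% (w/v) L-rhamnose at OD600 near 0.5, cultures sampled hourly, flipped fraction per protease–substrate barcode pair counted by paired-end Illumina sequencing.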
Variant,area with substrate ENLYFAS,area with substrate ENLYFDS,area with substrate ENLYFES,area with substrate ENLYFGS,area with substrate ENLYFHS,area with substrate ENLYFIS,area with substrate ENLYFLS,area with substrate ENLYFMS,area with substrate ENLYFNS,area with substrate ENLYFPS,area with substrate ENLYFRS,area with substrate ENLYFSS,area with substrate ENLYFTS,area with substrate ENLYFVS,area with substrate ENLYFWS,area with substrate ENLYFCS,area with substrate ENLYFFS,area with substrate ENLYFKS,area with substrate ENLYFYS
V183F,0.0622,0.0495,0.0636,0.0334,0.0605,0.0574,0.0587,0.0616,0.0593,0.0581,0.0467,0.0646,0.0579,0.0512,0.0263,,,,
V183Y,0.0585,0.0491,,,,0.0447,,0.0493,0.0696,0.0531,0.0438,0.0434,0.0516,0.0573,0.0537,0.0471,0.0639,0.0287,
K185E,0.0548,0.0584,0.0678,0.102,0.0379,,,0.0696,0.0812,,,0.041,0.0723,,0.0507,,0.0625,0.0577,0.0588
K185I,0.0627,0.0575,0.0682,,0.069,0.0587,0.0377,0.0684,0.067,0.0561,,0.0567,0.0492,0.0542,,0.0364,0.0496,0.0655,
F187H,0.0656,,,,0.0549,0.0543,0.0498,0.0495,0.0548,0.0578,0.0815,0.0301,0.0735,,,0.0485,0.049,0.056,0.0332
M188Y,0.0419,,0.0762,,,0.0541,,0.0707,0.0609,0.0598,0.0363,0.0576,,0.0479,0.0487,0.061,0.0673,0.0395,
L190W,0.0681,0.0609,0.0663,,0.0376,0.045,,0.0582,,0.0562,,0.0883,0.0479,0.0767,0.0613,0.052,0.085,0.0715,0.0445
Q194E,0.0636,,0.0649,,0.0616,0.0557,,,,0.0772,,0.0697,0.0437,0.0511,0.0485,,0.0919,,0.0689
A196H,0.0341,0.0561,,0.0571,0.0659,0.0526,0.0847,0.0774,0.0669,0.0423,0.0463,0.0585,,,0.0527,,0.0636,0.065,
A196I,0.0696,0.0631,0.0701,0.0668,0.0524,0.0544,0.0527,0.0666,0.0561,0.0558,0.0435,0.0816,0.0558,0.0432,0.0562,0.0567,0.0614,,0.0534
A196Q,0.0541,,0.0666,,,0.0676,,,0.0625,0.0566,0.0611,,0.0562,0.0632,0.0622,,0.0653,0.0666,
W199D,0.0247,0.0619,0.0607,0.0705,,0.0617,,0.0611,,0.0594,0.0657,,0.0565,0.0735,0.0612,0.0617,0.0709,0.0703,0.0553
W203E,0.0714,,0.0595,,0.0553,0.0568,,0.0463,0.0685,0.0826,0.0573,0.0456,,0.0482,0.0552,0.0533,0.0565,,0.0331
R204Q,0.0458,0.0738,0.0731,,0.0722,0.0495,,0.0614,,0.0602,0.0691,0.0737,0.0598,,0.0578,0.0602,0.0754,0.0505,0.0713
N206T,0.0327,,,,,0.0515,,0.0573,0.0597,0.0621,0.0654,,0.0637,,0.0614,0.0869,0.0769,0.0589,
W212D,0.0588,,0.0542,,0.0319,0.0532,,0.066,,0.051,0.0553,,0.0591,0.0661,0.0663,,0.0797,0.0618,
W212F,0.0545,0.0755,0.0578,,,0.0474,0.0547,,0.0713,0.0713,0.0673,0.0584,0.0555,,0.0589,0.0595,0.0583,0.0492,
G213D,0.0443,,0.0494,,,0.0584,,0.0627,,0.0672,0.0547,0.0637,0.0532,,0.0561,,0.0746,,
G213M,0.0628,,0.0539,,,0.0546,,0.0594,,0.0522,,0.0668,0.0582,,,0.0648,0.075,0.0604,0.064
G213W,0.0558,0.0661,0.0562,,,0.0552,0.0605,0.0574,0.0694,0.0531,0.0581,,0.0583,,0.0705,0.0577,0.0643,0.0684,0.0473
H215E,0.0499,,0.0594,,,0.0531,0.0326,0.0512,0.0631,0.0543,,,0.0585,,0.0649,,0.0573,0.0646,
H215R,0.0413,,,,0.0543,0.0525,0.0565,0.0823,0.0664,,0.0612,0.0548,0.0627,,0.0494,0.0584,0.0498,,
F218L,0.0595,0.0593,0.0631,,,0.0444,0.0534,0.0605,0.0424,0.0603,0.0503,,0.056,0.0464,,0.044,0.0746,0.0872,
P222Q,0.058,,0.0641,0.0685,0.049,0.0831,0.0474,0.0729,0.062,0.0663,0.0601,0.0571,0.0569,0.0587,0.0391,0.0466,0.0658,0.0562,0.0637
P222Y,0.0364,0.0594,0.0635,,0.0734,0.0582,0.0664,0.0611,0.0724,0.0682,,0.0653,,,0.0588,0.0525,0.0659,,0.0388
